# The other results are listed elsewhere or left out.
# B1: PhoQ; a variant is named by its letters at X, in order, P23837 (parent)
# chain: MKKLLRLFFPLSLRVRFLLATAAVVLVLSLAYGMVALIGYSVSFDKTTFRLLRGESNLFYTLAKWENNKLHVELPENIDKQSPTMTLIYDENGQLLWAQRDVPWLMKMIQPDWLKSNGFHEIEADVNDTSLLLSGDHSIQQQLQEVREDDDDAEMTHSVAVNVYPATSRMPKLTIVVVDTIPVELKSSYMVWSWFIYVLSANLLLVIPLLWVAAWWSLRPIEALAKEVRELEEHNRELLNPATTRELTSLVRNLNRLLKSERERYDKYRTTLTDLTHSLKTPLXXLQXXLRSLRSEKMSVSDAEPVMLEQISRISQQIGYYLHRASMRGGTLLSRELHPVAPLLDNLTSALNKVYQRKGVNISLDISPEISFVGEQNDFVEVMGNVLDNACKYCLEFVEISARQTDEHLYIVVEDDGPGIPLSKREVIFDRGQRVDTLRPGQGVGLAVAREITEQYEGKIVAGESMLGGARMEVIFGRQHSAPKDE
# Variants of: B1
# Test: enrichment ratio after two sorts for PhoP signalling (ratio (wild type AVST 3.29)); higher = more functional
# Conditions: with PhoP (E. coli)
row,Variant,enrichment ratio
1,DYVY,≤ 0.25
2,ILTN,≤ 0.25
3,PPLW,≤ 0.25
4,LTEC,≤ 0.25
5,LTNC,≤ 0.25
6,WQAG,≤ 0.25
7,GCNG,≤ 0.25
8,CFPT,≤ 0.25
9,PVME,≤ 0.25
10,AEAC,43.5
11,VDDD,≤ 0.25
12,KEAV,≤ 0.25
13,WPCP,≤ 0.25
14,PPSG,≤ 0.25
15,WMWH,≤ 0.25
16,GTGF,1.67
17,LDFI,≤ 0.25
18,ESIT,≤ 0.25
19,KPEC,≤ 0.25
20,GVRD,≤ 0.25
21,INAG,1.48
22,GMGN,2.73
23,KMCN,≤ 0.25
24,DCRP,≤ 0.25
25,SLGN,≤ 0.25
26,RTQM,≤ 0.25

row,Variant,enrichment ratio
1,VMNI,≤ 0.25
2,RIPE,≤ 0.25
3,WTIR,≤ 0.25
4,SALP,≤ 0.25
5,YCNL,≤ 0.25
6,CRIH,≤ 0.25
7,CLTI,≤ 0.25
8,SQKN,≤ 0.25
9,DMAR,≤ 0.25
10,EPID,≤ 0.25
11,LAAV,≤ 0.25
12,EGNY,≤ 0.25
13,MYAN,≤ 0.25
14,IAKY,≤ 0.25
15,KDPC,≤ 0.25
16,KTCH,≤ 0.25
17,GGAL,4.27
18,RPYF,≤ 0.25
19,RMQI,≤ 0.25
20,YEVC,≤ 0.25
21,LQNV,≤ 0.25
22,AQCH,32.7
23,AFSK,≤ 0.25
24,DTEA,≤ 0.25
25,PYQC,≤ 0.25
26,PNHF,≤ 0.25

row,Variant,enrichment ratio
1,FSEM,≤ 0.25
2,NGHS,≤ 0.25
3,HDCH,≤ 0.25
4,SVIC,0.439
5,SLEY,≤ 0.25
6,RPPA,≤ 0.25
7,AQPR,≤ 0.25
8,DSQI,≤ 0.25
9,QHIG,≤ 0.25
10,RHYI,≤ 0.25
11,HLCS,≤ 0.25
12,PQMV,≤ 0.25
13,VFVS,≤ 0.25
14,MHYW,≤ 0.25
15,LKYH,≤ 0.25
16,AFWN,≤ 0.25
17,NGMP,≤ 0.25
18,WYDY,≤ 0.25
19,PVHC,≤ 0.25
20,AKGT,≤ 0.25
21,YIAM,0.253
22,HQTG,≤ 0.25
23,RSMH,≤ 0.25
24,RRQV,≤ 0.25
25,NLSH,≤ 0.25
26,KFWY,≤ 0.25

row,Variant,enrichment ratio
1,HGKF,≤ 0.25
2,LGWW,≤ 0.25
3,THDF,11.6
4,YHYM,≤ 0.25
5,VNTY,≤ 0.25
6,YFVN,≤ 0.25
7,ADGA,≤ 0.25
8,QNEL,≤ 0.25
9,KFRG,≤ 0.25
10,FACR,≤ 0.25
11,DYIA,≤ 0.25
12,IFQD,≤ 0.25
13,ATAY,0.49
14,MIRG,≤ 0.25
15,YNQR,≤ 0.25
16,FESK,≤ 0.25
17,NVSR,≤ 0.25
18,IQID,≤ 0.25
19,HYIR,≤ 0.25
20,TFDF,≤ 0.25
21,QMLP,≤ 0.25
22,QLDQ,≤ 0.25
23,RCFY,≤ 0.25
24,FHMR,≤ 0.25
25,NTKN,≤ 0.25
26,GCRV,≤ 0.25

row,Variant,enrichment ratio
1,KYRR,≤ 0.25
2,AQYR,≤ 0.25
3,FTWC,≤ 0.25
4,KSNL,≤ 0.25
5,MVCH,3.47
6,RMRL,≤ 0.25
7,HTDC,≤ 0.25
8,SYCI,0.48
9,ESQN,≤ 0.25
10,EMDG,≤ 0.25
11,SPLW,≤ 0.25
12,TSLP,≤ 0.25
13,FTVA,≤ 0.25
14,QSIN,≤ 0.25
15,VRGP,≤ 0.25
16,LGAW,≤ 0.25
17,GRID,≤ 0.25
18,KFTP,≤ 0.25
19,DVTT,≤ 0.25
20,LCRY,≤ 0.25
21,MRAD,≤ 0.25
22,ITHP,≤ 0.25
23,NRGD,≤ 0.25
24,PDQW,≤ 0.25
25,KCVL,≤ 0.25
26,MPVF,≤ 0.25

row,Variant,enrichment ratio
1,VLIL,0.326
2,QAEH,≤ 0.25
3,NWVN,≤ 0.25
4,FHNR,≤ 0.25
5,NTRH,≤ 0.25
6,LKAN,≤ 0.25
7,PDKT,≤ 0.25
8,INRY,≤ 0.25
9,SYSL,≤ 0.25
10,PPYT,≤ 0.25
11,QGMH,≤ 0.25
12,YGGA,≤ 0.25
13,HFKG,≤ 0.25
14,RLKG,≤ 0.25
15,LLWK,≤ 0.25
16,LTLD,≤ 0.25
17,YQVN,≤ 0.25
18,VHIH,≤ 0.25
19,YQHI,≤ 0.25
20,YPSP,≤ 0.25
21,IGIK,≤ 0.25
22,EFHW,≤ 0.25
23,YRKT,≤ 0.25
